# Values joined by “and” are separate entries in the source; they are usually repeats but may differ in a detail not shown here. Identical values can stand only once. Inconclusive results, whose numbers are uncertain, are shown with a selection of clear calls. Where a call stands in place of a potency, no number is given. For part of these data: Potencies beside an inconclusive call are fits to weak or partial responses and may not hold up. Active and inactive are the calls of the source. Unless noted, the call rests on the fitted dose curve; in most records, active means well fitted curve in the direction sought with a large enough effect in the repeat runs; inconclusive means weak or mixed curves; inactive means no such curve, though single readings can be large; an effect the other way counts as inactive or inconclusive.
# Assays:
# [1] = qHTS assay for small molecule agonists of the antioxidant response element (ARE) signaling pathway (AID 743202; active means well fitted activation curve with a large enough effect in the signal ratio in the repeat runs, not every such curve was filed as active; inconclusive means weak or mixed curves, or effect the other way; inactive means no such curve, though single readings can be large or run the other way; the % refers to the signal ratio; further: potency means the concentration at half of the fitted maximal effect); details: HepG2 ARE-bla reporter, beta-lactamase FRET, 16 h; activation: at 73.3 µM (top of the series) unless noted
# How it was run: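 Following a 16 h, 37 C exposure of reporter HepG2 cells (ARE-driven beta-lactamase, 2,000 cells/well) to compounds, FRET substrate was applied for 2 h at room temperature and fluorescence intensity recorded.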
# [2] = qHTS assay for small molecule activators of the heat shock response signaling pathway - cell viability counter screen (AID 743209); details: HSE-bla HeLa viability, CellTiter-Glo luminescence, 5 h; activity change, negative = cytotoxicity: at 62.6 µM (top of the series) unless noted; further: nearly all actives have a fitted effect of over 50% in size; further: potency means the concentration at half of the fitted maximal effect
# How it was run: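 Same-well multiplex: after 2.5 h room-temperature incubation with LiveBLAzer B/G substrate and fluorescence reading, CellTiter-Glo reagent was added to HSE-bla HeLa cells that had received compound for 5 h at 37 C; luminescence read after 30 min.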
# [3] = qHTS assay to identify small molecule antagonists of the peroxisome proliferator-activated receptor delta (PPARd) signaling pathway - cell viability counter screen (AID 743213); details: PPARd-bla HEK293H viability, CellTiter-Glo luminescence, 17 h; viability change, negative = cytotoxic: at 62 µM (top of the series) unless noted; further: nearly all actives have a fitted effect of over 50% in size; further: potency means the concentration at half of the fitted maximal effect
# How it was run: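 Cytotoxicity counter screen: CellTiter-Glo luminescence read 30 min after addition, in the same wells as the reporter assay. There, PPARd UAS-bla HEK293H cells (3000/well) were treated 17 h at 37 C with compound and 300 nM L165041.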
# [4] = qHTS assay to identify small molecule antagonists of the vitamin D receptor (VDR) signaling pathway - cell viability counter screen (AID 743225); details: VDR-bla HEK293T viability, CellTiter-Glo luminescence, 16 h; viability change, negative = cytotoxic: at 61 µM (top of the series) unless noted; further: nearly all actives have a fitted effect of over 50% in size; further: potency means the concentration at half of the fitted maximal effect
# How it was run: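 Parallel cytotoxicity test: VDR-UAS-bla HEK 293T, 3 nM (final) 1-alpha,25-dihydroxyvitamin D3 with test compound, 16 h, 37C. Endpoint is CellTiter-Glo luminescence in the same wells.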
# [5] = qHTS assay to identify small molecule antagonists of the peroxisome proliferator-activated receptor gamma (PPARg) signaling pathway - cell viability counter screen (AID 743194); details: PPARg-bla HEK293H viability, CellTiter-Glo luminescence, 17 h; Potency: co-treated with 50 nM rosiglitazone unless noted; activity change, negative = cytotoxicity: at 62.6 µM (top of the series), co-treated with 50 nM rosiglitazone unless noted; further: nearly all actives have a fitted effect of over 55% in size
# How it was run: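 PPARg-UAS-bla HEK293H cells were plated, rested 5 h at 37 C, then treated with compounds plus rosiglitazone (50 nM final) for 17 h at 37 C; viability was then read by CellTiter-Glo luminescence after 30 min at room temperature.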
# [6] = target: Bile acid receptor (Homo sapiens) (UniProt Q96RI1); test: qHTS assay to identify small molecule antagonists of the farnesoid-X-receptor (FXR) signaling pathway (AID 743217; active means well fitted inhibition curve with a large enough effect in the signal ratio in the repeat runs, not every such curve was filed as active; inconclusive means weak or mixed curves, or effect the other way; inactive means no such curve, though single readings can be large or run the other way; the % refers to the signal ratio); details: HEK293T FXR-UAS-bla, beta-lactamase ratio, CDCA-stimulated, 16 h; activity change, negative = inhibition: at 62.6 µM (top of the series) unless noted
# How it was run: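 FRET fluorescence after 2 h room-temperature LiveBLAzer loading gives the readout. Prior step: FXR-bla HEK 293T cells, seeded and incubated 5 h, received test compounds plus 50 uM final CDCA for 16 h at 37 °C.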
# [7] = qHTS assay to identify small molecule agonists of the farnesoid-X-receptor (FXR) signaling pathway - cell viability counter screen (AID 743218); details: FXR-bla HEK293T viability, CellTiter-Glo luminescence, 16 h; viability change, negative = cytotoxic: at 62.6 µM (top of the series) unless noted; further: nearly all actives have a fitted effect of over 45% in size; further: potency means the concentration at half of the fitted maximal effect
# How it was run: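 Readout: CellTiter-Glo luminescence, 30 min RT, multiplexed after the FXR-bla FRET reading. HEK 293T FXR-UAS-bla cells received compound 5 h post-plating and were incubated 16 h at 37 C.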
# [8] = target: Vitamin D3 receptor (Homo sapiens) (UniProt P11473); test: qHTS assay to identify small molecule antagonists of the vitamin D receptor (VDR) signaling pathway (AID 743223; active means well fitted inhibition curve with a large enough effect in the signal ratio in the repeat runs, not every such curve was filed as active; inconclusive means weak or mixed curves, or effect the other way; inactive means no such curve, though single readings can be large or run the other way; the % refers to the signal ratio); details: VDR-UAS-bla HEK293T, beta-lactamase FRET ratio, 16 h; activity change, negative = inhibition: at 61 µM (top of the series) unless noted
# How it was run: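 Reporter line VDR-bla; stimulus 1alpha,25-(OH)2 vitamin D3, 3 nM final; compound co-addition, 16 h 37C/5% CO2; LiveBLAzer B/G substrate 2 h RT; fluorescence intensity.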
# [9] = target: Peroxisome proliferator-activated receptor delta (Homo sapiens) (UniProt Q03181); test: qHTS assay to identify small molecule agonists of the peroxisome proliferator-activated receptor delta (PPARd) signaling pathway (AID 743212; calls by dose curve;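 further: HEK293H cells with PPARd UAS beta-lactamase reporter GeneBLAzer system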); details: HEK293H PPARd-UAS-bla, beta-lactamase FRET ratio, 17 h; activation: at 62.6 µM (top of the series) unless noted
# How it was run: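 Beta-lactamase reporter read by fluorescence (LiveBLAzer B/G FRET, 2 h, room temperature). Test agents, in DMSO, incubated at 37 C with PPARd-bla HEK293H cells.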
# [10] = target: Peroxisome proliferator-activated receptor delta (Homo sapiens) (UniProt Q03181); test: qHTS assay to identify small molecule antagonists of the peroxisome proliferator-activated receptor delta (PPARd) signaling pathway (AID 743215; active means well fitted inhibition curve with a large enough effect in the signal ratio in the repeat runs, not every such curve was filed as active; inconclusive means weak or mixed curves, or effect the other way; inactive means no such curve, though single readings can be large or run the other way; the % refers to the signal ratio;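 further: cells stimulated with agonist L165041 at 300 nM final during compound exposure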; further: potency means the concentration at half of the fitted maximal effect); details: HEK293H PPARd-UAS-bla, beta-lactamase FRET ratio, antagonist, 17 h; ratio activity, negative = inhibition: at 62 µM (top of the series) unless noted
# How it was run: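 Fluorescence from cleaved LiveBLAzer B/G FRET substrate (2 h, room temperature) reports PPARd-driven beta-lactamase in HEK293H UAS-bla cells. Cells had been treated 17 h at 37 C with compound plus 300 nM final L165041.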
# [11] = target: Vitamin D3 receptor (Homo sapiens) (UniProt P11473); test: qHTS assay to identify small molecule agonists of the vitamin D receptor (VDR) signaling pathway (AID 743222; calls by dose curve); details: HEK293T VDR-UAS-bla, beta-lactamase FRET ratio, 16 h; activation: at 63.5 µM (top of the series) unless noted
# How it was run: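 Following 4 h attachment at 37C, VDR-bla cells (2,000 per well) received DMSO-dissolved compounds or controls. After 16 h incubation, LiveBLAzer B/G FRET substrate was added and fluorescence read 2 h later at room temperature.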
# [12] = qHTS assay for small molecule activators of the heat shock response signaling pathway (AID 743210; active means well fitted activation curve with a large enough effect in the signal ratio in the repeat runs, with a control signal flat, not every such curve was filed as active; inconclusive means weak or mixed curves; the % refers to the signal ratio); details: HeLa HSE-bla reporter, beta-lactamase ratio, 5 h; activation: at 62.6 µM (top of the series)
# How it was run: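 Heat shock element–beta-lactamase HeLa reporter cells; qHTS with compounds for 5 h at 37 C; detection by FRET substrate fluorescence after 2.5 h at RT.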
# [13] = qHTS assay to identify small molecule agonists of the peroxisome proliferator-activated receptor delta (PPARd) signaling pathway - cell viability counter screen (AID 743211); details: PPARd-bla HEK293H viability, CellTiter-Glo luminescence, 17 h; activity change, negative = cytotoxicity: at 62.6 µM (top of the series) unless noted; further: nearly all actives have a fitted effect of over 55% in size
# How it was run: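 qHTS cell viability: PPARd-bla HEK293H; 17 h cpd, 37C; CellTiter-Glo, luminescence at 30 min RT.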
# [14] = qHTS assay to identify small molecule agonists of the vitamin D receptor (VDR) signaling pathway - cell viability counter screen (AID 743224); further: nearly all actives have a fitted effect of over 50% in size; further: potency means the concentration at half of the fitted maximal effect
# How it was run: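 In parallel with the bla FRET readout, cytotoxicity toward VDR-bla cells after 16 h compound exposure was assessed by CellTiter-Glo, with luminescence recorded after a 30 min room-temperature incubation.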
# [15] = qHTS assay for small molecule agonists of the antioxidant response element (ARE) signaling pathway - cell viability counter screen (AID 743203; calls by dose curve; further: nearly all actives have a fitted effect of over 55% in size)
# How it was run: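 Measured in the same wells as the beta-lactamase ARE reporter, this read-out is CellTiter-Glo luminescence from HepG2 ARE-bla cells given compounds for 16 hrs.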
# [16] = qHTS assay to identify small molecule antagonists of the farnesoid-X-receptor (FXR) signaling pathway - cell viability counter screen (AID 743221; active means well fitted cell-killing curve with a large enough effect in the repeat runs, not every such curve was filed as active; inconclusive means weak or mixed curves, or effect the other way; inactive means no such curve, though single readings can be large or run the other way; further: nearly all actives have a fitted effect of over 50% in size); details: FXR-bla HEK293T viability, CellTiter-Glo luminescence, 16 h; activity change, negative = cytotoxicity: at 62.6 µM (top of the series) unless noted
# How it was run: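 After a 5 h settling period, FXR-bla HEK 293T cells receive compound and chenodeoxycholic acid (50 uM final) and incubate 16 h at 37 C; CellTiter-Glo luminescence, read after 30 min at room temperature, reports cell viability.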
# Tags describe the fitted curve by direction and shape or compound fluorescence and quenching.
# UniProt P11473, sequence (P11473 whole entry, looked up): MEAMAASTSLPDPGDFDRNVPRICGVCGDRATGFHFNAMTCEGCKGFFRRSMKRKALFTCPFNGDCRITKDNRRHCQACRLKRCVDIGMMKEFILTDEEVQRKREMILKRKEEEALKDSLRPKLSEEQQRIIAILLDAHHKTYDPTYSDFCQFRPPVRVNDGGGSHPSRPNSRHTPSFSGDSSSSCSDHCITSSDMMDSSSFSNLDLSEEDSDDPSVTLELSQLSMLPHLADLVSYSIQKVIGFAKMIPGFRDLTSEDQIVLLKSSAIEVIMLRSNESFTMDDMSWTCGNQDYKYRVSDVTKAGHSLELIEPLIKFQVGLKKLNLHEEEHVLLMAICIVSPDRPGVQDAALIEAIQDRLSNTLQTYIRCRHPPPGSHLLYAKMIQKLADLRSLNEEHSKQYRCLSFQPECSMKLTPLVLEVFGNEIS
# UniProt Q03181, sequence (Q03181 whole entry, looked up): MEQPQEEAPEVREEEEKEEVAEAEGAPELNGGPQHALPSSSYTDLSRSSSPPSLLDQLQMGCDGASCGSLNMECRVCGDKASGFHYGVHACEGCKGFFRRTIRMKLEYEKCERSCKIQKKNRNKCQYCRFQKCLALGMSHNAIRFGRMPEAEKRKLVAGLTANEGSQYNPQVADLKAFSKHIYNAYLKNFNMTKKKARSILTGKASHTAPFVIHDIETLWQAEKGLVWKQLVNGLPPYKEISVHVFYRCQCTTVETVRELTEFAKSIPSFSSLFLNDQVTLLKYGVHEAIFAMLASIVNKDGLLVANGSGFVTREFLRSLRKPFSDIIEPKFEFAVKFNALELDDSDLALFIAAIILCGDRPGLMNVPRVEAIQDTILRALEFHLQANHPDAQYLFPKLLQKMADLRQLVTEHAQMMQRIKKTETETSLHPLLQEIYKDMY
# UniProt Q96RI1, sequence (Q96RI1 whole entry, looked up): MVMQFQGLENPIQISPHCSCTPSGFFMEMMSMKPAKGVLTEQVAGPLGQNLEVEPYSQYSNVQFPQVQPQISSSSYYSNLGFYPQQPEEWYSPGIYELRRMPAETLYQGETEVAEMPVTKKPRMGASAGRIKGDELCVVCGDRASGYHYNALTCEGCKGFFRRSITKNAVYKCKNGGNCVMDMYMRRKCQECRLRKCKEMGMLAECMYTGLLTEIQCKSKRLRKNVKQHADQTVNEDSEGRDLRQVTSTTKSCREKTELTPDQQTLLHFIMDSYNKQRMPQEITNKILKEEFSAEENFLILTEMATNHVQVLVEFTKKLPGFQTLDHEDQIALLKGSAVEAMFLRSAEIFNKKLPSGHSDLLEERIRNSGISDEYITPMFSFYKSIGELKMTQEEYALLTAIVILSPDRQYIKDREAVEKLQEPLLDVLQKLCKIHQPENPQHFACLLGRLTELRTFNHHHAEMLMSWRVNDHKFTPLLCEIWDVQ
smiles,measurement,setting,value
CCCCNP(N)(N)=S,Potency,[1],inactive
same,Potency,[2],inactive
same,Potency,[3],inactive
same,Potency,[4],inactive
CCN(CC)C(=O)N[C@@H]1C=C2c3cccc4[nH]cc(c34)C[C@@H]2N(C)C1,Potency,[5],inactive
same,"activity change, negative = inhibition",[6],inconclusive: -31.2%
same,Potency,[7],"inconclusive: 13.3 µM [rising, single point]"
same,"activity change, negative = inhibition",[8],inconclusive: 9.67%
C/C=C/C=O,activation,[1],inconclusive: 18.2%
CC(NC(C)(C)C)C(=O)c1cccc(Cl)c1 (configuration not stated),Potency,[1],inactive and inconclusive: 13.3 µM
same,Potency,[3],"inconclusive: 13.3 µM [cytotoxic, partial curve, poor fit]"
same,"activity change, negative = inhibition",[8],inconclusive: 5.44%
CC(=O)CCC(C)=O,Potency,[1],inactive
same,Potency,[2],"inconclusive: 5.03 µM [rising, full curve, poor fit]"
NC(=O)CI,Potency,[1],inactive
same,Potency,[9],inactive
same,"ratio activity, negative = inhibition",[10],inconclusive: 24.8% [at 80.4 µM]
same,Potency,[11],inactive
same,Potency,[4],"inconclusive: 0.221 µM [cytotoxic, single point]"
Nc1ccccc1,Potency,[1],inactive
same,Potency,[12],inactive
same,Potency,[7],inactive
C=CCCl,Potency,[12],inactive
same,Potency,[7],inactive
same,"activity change, negative = inhibition",[8],inconclusive: 29% [at 78.8 µM]
CCC(C)(C)O,Potency,[13],inactive
same,Potency,[7],inactive
CC(C)(C#N)N=NC(C)(C)C#N,activation,[1],inconclusive: 15.3%
same,activation,[11],inconclusive: 16.9%
C=CCOC(=O)c1ccccc1N,Potency,[11],inactive
same,"activity change, negative = inhibition",[8],inconclusive: -14.6% [at 78.8 µM]
same,Potency,[4],inactive
CC1CCC(=O)O1 (configuration not stated),activation,[1],inconclusive: -4.9%
same,Potency,[14],"inconclusive: 21.9 µM [cytotoxic, partial curve, poor fit]"
CN(C1CCCCC1)C1CCCCC1,Potency,[15],inactive
same,Potency,[8],inactive
same,Potency,[14],inactive
NN=C(N)N,Potency,[3],"inactive and inconclusive: 1.19 µM [cytotoxic, single point]"
same,Potency,[7],inactive
COc1cc(OC)nc(NC(=O)NS(=O)(=O)c2ncccc2OCC(F)(F)F)n1,Potency,[9],inactive
same,Potency,[3],inactive
same,Potency,[6],inactive
same,Potency,[7],inactive
same,Potency,[8],inactive
same,Potency,[14],inactive
C[N+](C)=CCl,Potency,[2],inactive
NC(=O)C(Cl)Cl,Potency,[10],"inconclusive: 54.8 µM [activator, single point]"
same,Potency,[14],inactive
CCCCCCI,Potency,[6],inactive
CN/C(=N\[N+](=O)[O-])NCc1cnc(Cl)s1,Potency,[16],inactive
C/C=C/c1ccc2c(c1)OCO2,Potency,[7],inactive
same,Potency,[8],inactive
COC(=O)c1ccccc1S(=O)(=O)NC(=O)Nc1nc(C)nc(OC)n1,Potency,[1],inactive
same,Potency,[6],inactive
same,Potency,[14],inactive
COc1cc(CC(C)N)cc(OC)c1OC (configuration not stated),Potency,[12],inactive
same,activation,[9],inconclusive: 17.1% [at 81.1 µM]
